# The full ranking holds about 2,900 compounds; the median of “NF-kB SEAP reporter activity, fold change vs agonist alone” is about 0.99, and the highest 2% start at about 2.6. This is one part of the list.
# Experiments:
# [1] = system: RAW-Dual; experiment: NF-kB SEAP reporter activity, fold change vs agonist alone; cytotoxicity flag (confluency mask): not cytotoxic; higher = enhanced NF-kB activity
# Procedure, shortened: (§1)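 Supernatant from RAW-Dual macrophages was read after 20 hours for IRF by QuantiLuc luminescence and for NF-κB by QuantiBlue absorbance at 620 nm. The cells (50,000 cells/well in DMEM, 384-well plates, 37 °C, 5% CO2) had received 50 nL of library stock by pin tool and, 1 h later, a PRR agonist. Reporter activity is expressed relative to agonist-alone wells as fold change, and wells were flagged cytotoxic if IncuCyte confluency was under 70% of agonist controls in both mask sets.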
# [2] = system: RAW-Dual; experiment: NF-kB SEAP reporter activity, fold change vs agonist alone; higher = enhanced NF-kB activity; conditions: library stock concentration (final ~1000-fold dilution): 10 mM
# Procedure, shortened: as §1
# [3] = system: RAW-Dual; experiment: NF-kB SEAP reporter activity, fold change vs agonist alone; cytotoxicity flag (confluency mask): cytotoxic (confluency <70% of control); higher = enhanced NF-kB activity
# Procedure, shortened: as §1
# [4] = agonist: ODN 1826 (TLR9) 0.5 ug/mL
# [5] = agonist: Pam2CSK4 (TLR2/6) 0.1 ug/mL
# [6] = agonist: Pam3CSK4 (TLR2/1) 0.1 ug/mL
# [7] = cytotoxicity flag (confluency mask): not cytotoxic, agonist: Imiquimod (TLR7) […]
# [8] = cytotoxicity flag (confluency mask): not cytotoxic, agonist: MPLA (TLR4) […]
smiles,measurement,setting,value
NC(=O)c1nc(F)cnc1O (library stock concentration (final ~1000-fold dilution): 10 mM),NF-kB SEAP reporter activity,[1]; agonist: LPS (TLR4) 0.1 ug/mL,1.03
same,NF-kB SEAP reporter activity,[1]; [4],0.981
same,NF-kB SEAP reporter activity,[1]; [5],0.983
same,NF-kB SEAP reporter activity,[1]; [6],0.977
NC(=O)c1nc(F)cnc1O,NF-kB SEAP reporter activity,[2]; [7],0.942
same,NF-kB SEAP reporter activity,[2]; [8],1.01
O=C(NO)c1cccc(C(=O)NCCc2ccccc2)c1,NF-kB SEAP reporter activity,[2]; [7],1.05
same,NF-kB SEAP reporter activity,[2]; [8],1.05
O=C(NO)c1cccc(C(=O)NCCc2ccccc2)c1 (library stock concentration (final ~1000-fold dilution): 10 mM),NF-kB SEAP reporter activity,[1]; agonist: LPS (TLR4) 0.1 ug/mL,0.989
same,NF-kB SEAP reporter activity,[1]; [4],1.12
same,NF-kB SEAP reporter activity,[1]; [5],0.864
same,NF-kB SEAP reporter activity,[1]; [6],0.709
CC(=O)Nc1nc2c(Oc3cc(-c4ccc(C(F)(F)F)cc4)ncn3)cccc2s1,NF-kB SEAP reporter activity,[2]; [7],0.846
same,NF-kB SEAP reporter activity,[2]; [8],1.03
CC(=O)Nc1nc2c(Oc3cc(-c4ccc(C(F)(F)F)cc4)ncn3)cccc2s1 (library stock concentration (final ~1000-fold dilution): 10 mM),NF-kB SEAP reporter activity,[1]; agonist: LPS (TLR4) 0.1 ug/mL,0.799
same,NF-kB SEAP reporter activity,[1]; [4],0.891
same,NF-kB SEAP reporter activity,[1]; [5],0.972
same,NF-kB SEAP reporter activity,[1]; [6],0.971
CC(C)n1nc(-c2ccc3oc(N)nc3c2)c2c(N)ncnc21 (library stock concentration (final ~1000-fold dilution): 10 mM),NF-kB SEAP reporter activity,[1]; agonist: LPS (TLR4) 0.1 ug/mL,2.03
same,NF-kB SEAP reporter activity,[1]; [4],1.69
same,NF-kB SEAP reporter activity,[1]; [5],0.647
same,NF-kB SEAP reporter activity,[1]; [6],0.973
CC(C)n1nc(-c2ccc3oc(N)nc3c2)c2c(N)ncnc21,NF-kB SEAP reporter activity,[2]; [7],1.76
same,NF-kB SEAP reporter activity,[2]; [8],2.1
Nc1nc(NC2CC2)cc(-c2cccc(Cl)c2Cl)n1,NF-kB SEAP reporter activity,[2]; [7],1.1
same,NF-kB SEAP reporter activity,[2]; [8],1.09
Nc1nc(NC2CC2)cc(-c2cccc(Cl)c2Cl)n1 (library stock concentration (final ~1000-fold dilution): 10 mM),NF-kB SEAP reporter activity,[1]; agonist: LPS (TLR4) 0.1 ug/mL,1.07
same,NF-kB SEAP reporter activity,[1]; [4],0.971
same,NF-kB SEAP reporter activity,[1]; [5],1.08
same,NF-kB SEAP reporter activity,[1]; [6],0.753
CC(C)=CC[C@@H](O)C1=CC(=O)c2c(O)ccc(O)c2C1=O,NF-kB SEAP reporter activity,"[2]; cytotoxicity flag (confluency mask): cytotoxic (confluency <70% of control), agonist: Imiquimod (TLR7) […]",0.149
same,NF-kB SEAP reporter activity,"[2]; cytotoxicity flag (confluency mask): cytotoxic (confluency <70% of control), agonist: MPLA (TLR4) […]",0.273
CC(C)=CC[C@@H](O)C1=CC(=O)c2c(O)ccc(O)c2C1=O (library stock concentration (final ~1000-fold dilution): 10 mM),NF-kB SEAP reporter activity,[3]; agonist: LPS (TLR4) 0.1 ug/mL,0.371
same,NF-kB SEAP reporter activity,[3]; [4],0.246
same,NF-kB SEAP reporter activity,[3]; [5],0.115
same,NF-kB SEAP reporter activity,[3]; [6],0.251
CNCc1cc(-c2ccccc2F)n(S(=O)(=O)c2cccnc2)c1.O=C(O)/C=C/C(=O)O (library stock concentration (final ~1000-fold dilution): 10 mM),NF-kB SEAP reporter activity,[1]; agonist: LPS (TLR4) 0.1 ug/mL,1
same,NF-kB SEAP reporter activity,[1]; [4],0.458
same,NF-kB SEAP reporter activity,[1]; [5],0.812
same,NF-kB SEAP reporter activity,[1]; [6],0.591
CNCc1cc(-c2ccccc2F)n(S(=O)(=O)c2cccnc2)c1.O=C(O)/C=C/C(=O)O,NF-kB SEAP reporter activity,[2]; [7],0.604
same,NF-kB SEAP reporter activity,[2]; [8],1.02
O=C(Nc1nc2cccc(-c3ccc(CN4CCS(=O)(=O)CC4)cc3)n2n1)C1CC1,NF-kB SEAP reporter activity,[2]; [7],0.661
same,NF-kB SEAP reporter activity,[2]; [8],1.02
O=C(Nc1nc2cccc(-c3ccc(CN4CCS(=O)(=O)CC4)cc3)n2n1)C1CC1 (library stock concentration (final ~1000-fold dilution): 10 mM),NF-kB SEAP reporter activity,[1]; agonist: LPS (TLR4) 0.1 ug/mL,0.515
same,NF-kB SEAP reporter activity,[1]; [4],1.2
same,NF-kB SEAP reporter activity,[1]; [5],0.994
same,NF-kB SEAP reporter activity,[1]; [6],0.405
Cc1cc(CN2CCN(c3c(Br)cnc4[nH]c(-c5ccc(N6CCN(C)CC6)cc5)nc34)CC2)no1 (library stock concentration (final ~1000-fold dilution): 2 mM),NF-kB SEAP reporter activity,[1]; agonist: LPS (TLR4) 0.1 ug/mL,1.36
same,NF-kB SEAP reporter activity,[1]; [4],0.61
same,NF-kB SEAP reporter activity,[1]; [5],1.24
same,NF-kB SEAP reporter activity,[1]; [6],1.41
